# Results reported in the supplement of paper PMC11417369.
# The other results are listed elsewhere or left out.
# Test system: PfAP2-HC AP2 domain (GST-tagged)
# Assay: gcPBM binding intensity (ln(normalized median fluorescence intensity)); higher = stronger DNA binding
# How it was run: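 DNA-binding domains from P. falciparum, fused to GST and produced in E. coli, were put on an Agilent 4 × 180k double-stranded probe array for 1 h in 1× PBS holding 1% milk, 0.2 mg/ml BSA, 0.5% salmon testes DNA and 0.03% Triton X-100. Probes were primer-extended, 36 bp long and drawn from intergenic genomic regions, with negative controls included. After Alexa488 anti-GST antibody detection and a 488 nm scan, binding intensity was set as the highest Masliner-normalised natural-log median intensity across replicate spots of either probe orientation.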
row,Sequence,gcPBM binding intensity (ln)
1,ATAATTTCACAAATAGTGCAAAAATTAGTAAGAATA [GTGCAC_site9648],9.76
2,TTTTATAAATATTATACATGCATAATGATAAAAAAA [TGCATGCA_site927],9.55
3,TATGTAACCTGTTTTACACACCCCCACCCCCCTCTT [CACACA_site319],10.2
4,AAAAAAAACAGACACACACACATACAAAATATATAT [CACACA_site1449],10.7
5,TTTAAATACAGACATACACACATACACAGACATATA [CACACA_site4460],10.6
6,CTCTATTGTTAAAAGGTGCTTTTATGATTTTATATA [GTGCAC_site9409],9.68
7,ATATTTTTATGTACTTCAAAAAAAAAGAAAAACAAA [CACACA_negctrl_site970],9.48
8,TAATTTTTTTTTAATTGTACATGTGAATATATTTCA [XGTACX_site4115],9.35
9,GTTTACATTTTAAGAAGTACAAAATTTATGGTTAAA [XGTACX_site450],9.42
10,TATATATATATATGTAGTACTCAATATTGTAGATTA [XGTACX_site3856],9.64
11,AAATATATGTATATATGTACATATGTGTGCTATCAT [XGTACX_site1604],9.97
12,TATTTATCTATTTTGTTATATAATAAAATAAAATAA [CACACA_negctrl_site281],9.23
13,AAACAATTGAATAAATGTACAGATACATTTTTTTAA [XGTACX_site5386],9.65
14,AAAAATAAACAAAATTGTACACATTACATACATATA [XGTACX_site966],9.8
15,ATACATACAAAAATTTGTACATATTTCCAATAATGT [XGTACX_site2658],9.57
16,GAAAAAACGAAAAAAATACACACCTGAAAAGATATG [CACACA_site887],9.88
17,GCCATAATATGACATACACACACAAAAAAAAAAAAA [CACACA_site8353],10.6
18,AAATTTCCATTTGGGTGTACATGTGAAACTACAAAG [XGTACX_site208],9.63
19,TTTTTATTTATATGATACTTATATATATATATATAT [CACACA_negctrl_site462],9.78
20,TTCTTAATATTGCATGCACACTATATAATAATTGAA [CACACA_site4720],9.85
21,TCTTTTAAAAAAATTTGTACATATTTTTTGTATTAT [XGTACX_site67],9.66
22,TTTTCCCTCTTATTCACACAAAAAAAATAAAATAAA [CACACA_site4656],9.26
23,TATTTATTTTTTTTTGTGCACTTAATATAATCTTAC,9.78

row,Sequence,gcPBM binding intensity (ln)
1,ACACTAACATCATATCGTACATTTGTTAATTTATAA [XGTACX_site8654],9.74
2,GAAAGAATAAAATTTACACACATATAAATATACATA [CACACA_site7125],9.79
3,TATTTGAAAACATAGGTGCACATTATTTTATAATCT [GTGCAC_site9947],9.74
4,AAAGGTGTCATATATGCACACAAAAGTAACACGCAC [CACACA_site8051],10.2
5,TTTATTCTTGAGTATTGTACATATGTGTTTGTATAT [XGTACX_site5706],9.96
6,AGGAGGATGCATATGGCACACATTATGAAACTGTCG [CACACA_site299],9.69
7,TGTTCTTTGTTCAGCGCATGTAAAATAAAATAAAAT [TGCATGCA_site629],9.31
8,TTTTTTTTTGAATACAGTACACAAGTGTTAAGTTTA [XGTACX_site7069],9.36
9,GATTGATTATATGTGTGTACTTATATGTTAAAAAAA [XGTACX_site4784],9.78
10,TATGAATATCTATACACACACATATATATACCCACT [CACACA_site4963],10.2
11,ATCGTTATATAAAAATGTACTTATAAATTGTATACA [XGTACX_site6664],9.55
12,CAACATTTGATAAACACACAGAAGTATAAATATATA [CACACA_site2365],9.83
13,AAAGGAAAAATCCAAGTGCATTATTATTTTCACAAA [GTGCAC_site9995],9.38
14,TGTAAGCACATACAAACACACAACATTATTTTTATC [CACACA_site2186],10.2
15,TAGTATAATATGAACACACACACACGCACAAAAAAA [CACACA_site7035],10.5
16,GAAAAAAATGAAATTAGTACTTATCTTAAATTTTTA [XGTACX_site1018],9.26
17,AAAAATATATAATAAAGTACACATAAATGAATAAAT [XGTACX_site329],9.94
18,TTTTTTTTTTTTTGATGTACAATTAATATTATAAAA [XGTACX_site6969],9.15
19,ATTTCTTTTTTATTGAGTACATATGACCATGTTCAA [XGTACX_site5365],9.56
20,CATTTTAAAGAAAATACACACAAAAATAGATATATA [CACACA_site6773],9.79
21,AGTAATAAATAATTTACACACATATTATATCATCAC [CACACA_site1890],9.93
22,AAGAAATAAAGCAAAACATGCACTCGAAAATGTTTT [TGCATGCA_site1014],9.71
